# Results: the supplement of paper PMC4166925
# ± gives the standard deviation of the averaged measurements. In all, about 33,000 sequences were measured (“E-score (dimensionless, -0.5 to 0.5)”: median about -0.046, highest 2% from about 0.36 on). The list shows a part of the results.
# Tested on: T1, SpTbr T-box DNA-binding domain (GST fusion)
# T1 sequence: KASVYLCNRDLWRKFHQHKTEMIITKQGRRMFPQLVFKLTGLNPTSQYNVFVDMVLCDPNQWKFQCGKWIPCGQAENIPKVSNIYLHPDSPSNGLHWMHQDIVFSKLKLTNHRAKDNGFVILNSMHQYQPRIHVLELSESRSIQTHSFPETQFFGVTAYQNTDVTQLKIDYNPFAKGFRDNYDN
# Test: PBM E-score of 8-mer (E-score (dimensionless, -0.5 to 0.5)); Tbr is Tbrain of the sea star Patiria miniata (Pm) or the sea urchin Strongylocentrotus purpuratus (Sp); higher = stronger binding preference; most listed sequences are background and not binding sites
# Conditions: the construct has about 5 more residues each side
# Description: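 Universal protein-binding microarray (Agilent AMADID 016060, 60-bp probes with a 35-bp variable region) incubated with 200 nM GST-fused Strongylocentrotus purpuratus Tbr T-box DNA-binding domain (residues 362-554) in PBS pH 7.5. Scored for every ungapped 8-mer (given with its reverse complement) as E-score (range -0.5 to 0.5; >0.45 counts as bound) and Z-score of median probe intensity. Two replicate arrays (datasets 1 and 2).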
# 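Further: protein at 200 nM in PBS on universal double-stranded arrays.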
row,Sequence,PBM E-score of 8-mer
1,ACATACAT,-0.111 ± 0.03
2,ATTCTTGC,-0.271 ± 0.059
3,GCTCGGAC,-0.231 ± 0.022
4,CGTCTGCC,-0.0786 ± 0.027
5,GTCCACAC,0.385 ± 0.0075
6,GATATATC,0.0937 ± 0.085
7,ACTGAGTA,-0.102 ± 0.034
8,CTGGAATA,-0.106 ± 0.026
9,AAGACCAG,-0.00745 ± 0.01
10,AACTACGC,0.0222 ± 0.02
11,CGTTTAGA,-0.183 ± 0.039
12,GAGCGCCA,0.0875 ± 0.013
13,GTAGCAAC,0.154 ± 0.041
14,CACGTTGG,0.18 ± 0.019
15,ACGGCGCG,0.219 ± 0.072
16,ACTCCATA,0.00838 ± 0.046
17,CGTCGACC,-0.0569 ± 0.086
18,ATAGCCGC,0.0201 ± 0.052
19,CACCGCAG,0.027 ± 0.061
20,AACAGGCA,-0.117 ± 0.014
21,GTCACCCA,0.203 ± 0.0083
22,CTTACACA,0.276 ± 0.035
23,AGTAAAGA,-0.0335 ± 0.12
24,AATTTATC,-0.0106 ± 0.13
25,ACCTGGAC,0.00522 ± 0.073

row,Sequence,PBM E-score of 8-mer
1,CTAGATAC,-0.23 ± 0.056
2,AATCGGAG,-0.187 ± 0.031
3,CAAGACAA,-0.0526 ± 0.028
4,AAAACTAT,-0.0179 ± 0.042
5,TGCTCCCA,-0.0378 ± 0.021
6,GGGTGCCA,0.3739 ± 0.003
7,CTAGGTCC,-0.1749 ± 0.0009
8,AGCCACCG,-0.0822 ± 0.14
9,GAACACCC,0.116 ± 0.0077
10,GCGACAGA,0.241 ± 0.02
11,AGGTAAAA,-0.0157 ± 0.037
12,TTGTACAA,-0.0646 ± 0.057
13,GCAGCTGA,0.0869 ± 0.011
14,AATCTTTG,-0.0166 ± 0.07
15,CTACAAAA,-0.0411 ± 0.0076
16,GATTCCCC,0.0126 ± 0.035
17,AACTGTTG,0.241 ± 0.017
18,GAAGTCGA,0.107 ± 0.051
19,ATGGTTTG,-0.185 ± 0.047
20,ATAGCAGA,-0.0763 ± 0.061
21,AAGCCGCA,0.0597 ± 0.017
22,AGCCAAGC,-0.252 ± 0.0039
23,GCTCTCAA,-0.0174 ± 0.017
24,GAAAGGCC,-0.158 ± 0.031
25,GGGAACCA,-0.184 ± 0.02

row,Sequence,PBM E-score of 8-mer
1,GGGGACTA,-0.217 ± 0.016
2,CTGGTACA,-0.063 ± 0.031
3,CAAAACAG,0.00426 ± 0.055
4,GCGGTGGA,-0.0937 ± 0.012
5,AGGCGGAT,-0.157 ± 0.09
6,CCTTACTC,-0.216 ± 0.011
7,ATTGCGAC,-0.0335 ± 0.048
8,CACTTCTC,0.279 ± 0.015
9,CGGCTGAG,-0.0504 ± 0.033
10,CTCCCGAG,-0.135 ± 0.03
11,CGAGTGCA,0.0405 ± 0.054
12,AGCTTATC,0.0177 ± 0.057
13,CTCGTAAG,-0.0829 ± 0.037
14,GCATGTAC,-0.203 ± 0.043
15,GGTGAGCA,0.228 ± 0.022
16,CATAGCAA,-0.148 ± 0.032
17,CGGTACCA,-0.0719 ± 0.0091
18,CTTTACGA,-0.151 ± 0.019
19,ATATTAAA,-0.0775 ± 0.025
20,AAAAAGGA,-0.111 ± 0.064
21,TGTTAAAA,0.302 ± 0.075
22,CCTGAAGC,-0.188 ± 0.022
23,ACGCAGGC,-0.149 ± 0.011
24,AAGTCCTG,-0.207 ± 0.043
25,TAAGGTGA,0.331 ± 0.021

row,Sequence,PBM E-score of 8-mer
1,CGAAGTAG,0.0791 ± 0.0065
2,CCTAGGCA,-0.0618 ± 0.034
3,ACGTTAGC,0.212 ± 0.0091
4,ATGTACTG,-0.136 ± 0.07
5,CAGTAAAC,-0.0518 ± 0.033
6,CTCAGGTA,-0.0519 ± 0.084
7,ACGGCTCC,0.0729 ± 0.015
8,ATTAATAC,-0.0371 ± 0.066
9,GAGGCCTC,-0.124 ± 0.065
10,ACAACGAC,0.0238 ± 0.0037
11,ACGCAGTA,-0.0808 ± 0.017
12,GGATGTCA,0.126 ± 0.026
13,CTCTGCTA,-0.164 ± 0.035
14,CCGTGAGA,0.143 ± 0.015
15,CACGTTTC,0.274 ± 0.017
16,ATCACTGG,-0.0934 ± 0.017
17,ATGCTCAA,-0.192 ± 0.09
18,ATCTTGCG,0.0121 ± 0.064
19,GGACACAA,-0.0795 ± 0.03
20,CAGTCGCG,0.187 ± 0.029
21,CATCATAG,-0.0479 ± 0.071
22,CCTACCAC,0.16 ± 0.013
23,ATAGCGGG,0.0652 ± 0.067
24,ATTCCGAA,-0.2854 ± 0.0024
25,CCCTATCG,-0.136 ± 0.092

row,Sequence,PBM E-score of 8-mer
1,ATGGGAAC,-0.109 ± 0.011
2,ACTTAGTC,-0.122 ± 0.11
3,TCTAGCAA,0.0241 ± 0.079
4,CGTCCTTC,-0.238 ± 0.019
5,CGTATAGA,-0.133 ± 0.062
6,AGAAAGGC,0.0264 ± 0.02
7,GCATCTAA,-0.0797 ± 0.077
8,CACGGAAC,0.0135 ± 0.049
9,ACTTAAAT,-0.2 ± 0.014
10,ACTGTAAG,0.0246 ± 0.008
11,TATAGTGA,0.13 ± 0.064
12,TCGTAGCA,0.128 ± 0.038
13,GTGTTAAC,0.4543 ± 0.0026
14,CGCCCACC,-0.0996 ± 0.17
15,GGAGAGAC,-0.102 ± 0.04
16,AGCTTGTA,-0.157 ± 0.11
17,GCCCTACA,-0.239 ± 0.038
18,ACTTAGAC,0.0615 ± 0.072
19,ATAAAGAT,-0.244 ± 0.043
20,AGCTCCTA,0.0311 ± 0.0037
21,CTATGCGC,0.0171 ± 0.043
22,CAACCTTC,0.0149 ± 0.061
23,AGTAAGCA,-0.0985 ± 0.044
24,GCTTTTCC,-0.201 ± 0.024
25,TCTCGCAA,0.278 ± 0.017

row,Sequence,PBM E-score of 8-mer
1,GAGCATCA,-0.158 ± 0.0076
2,TCTGATCA,-0.0796 ± 0.0032
3,GAGGGCTA,-0.00456 ± 0.025
4,GAGTGTTA,0.386 ± 0.021
5,ACTTTGAT,-0.101 ± 0.076
6,AAAGTACA,-0.0207 ± 0.1
7,AGCCGTCC,-0.252 ± 0.0058
8,ACATCCAC,0.136 ± 0.025
9,AAAAATAG,-0.0913 ± 0.013
10,AATGGTAC,-0.165 ± 0.035
11,GGTGCTGA,0.337 ± 0.044
12,CCGGGTCG,0.102 ± 0.015
13,CGGCAAGA,-0.00583 ± 0.057
14,ACGGTGCT,0.143 ± 0.012
15,GGCACTAA,0.126 ± 0.055
16,ACCGGATG,-0.0915 ± 0.031
17,AGGATGAT,-0.095 ± 0.066
18,CGACGCGA,0.159 ± 0.068
19,GGCATCCC,-0.152 ± 0.038
20,GGCTCAGA,-0.208 ± 0.0087
21,CATCCAGA,-0.0238 ± 0.059
22,CCACACAA,0.0877 ± 0.025
23,CGTGGTGA,0.0947 ± 0.012
24,ACTAGCAA,0.0287 ± 0.046
25,CGGCGCGA,0.3178 ± 0.00058

row,Sequence,PBM E-score of 8-mer
1,AGCCCACT,-0.0662 ± 0.087
2,ACCCGATA,0.0716 ± 0.03
3,CTTGTAGC,0.0838 ± 0.014
4,ACGCGGAC,0.123 ± 0.078
5,GCTGGTAC,-0.0633 ± 0.098
6,CCACGCCA,0.0158 ± 0.022
7,GTCGTAGA,-0.177 ± 0.018
8,AGCCCCCT,-0.356 ± 0.013
9,AGTACCTG,-0.129 ± 0.045
10,CCATTCTA,-0.169 ± 0.086
11,ACTTCGTG,0.037 ± 0.07
12,CGAAAATC,-0.126 ± 0.091
13,TATCGTCA,0.149 ± 0.019
14,ACGCGGCT,0.101 ± 0.014
15,AGCTACAT,-0.165 ± 0.078
16,CGAGATCA,0.108 ± 0.0073
17,CCACTCCA,-0.0799 ± 0.07
18,CATTGCCA,0.152 ± 0.021
19,TCAAGCAA,-0.175 ± 0.042
20,AGCCGACG,0.0538 ± 0.072
21,CTTCGGGA,-0.0424 ± 0.024
22,CCGCGTGA,0.3326 ± 0.0012
